The text below walks through data of the antibiotic and cytotoxicity screens of Wong et al. (2023).

In one experiment the test system is HSkMC. As to the kind of experiment: cytotoxicity call (relative viability < 0.9). As to conditions: 10 µM.
The test system of another experiment is HepG2. In words: cytotoxicity call (relative viability < 0.9). The note with it: 10 µM.
The test system of another experiment is S. aureus RN4220. In words: growth inhibition call (relative growth <= 0.2). As to conditions: 50 µM.

This is one part of the list.

Consider `COc1ccc(NC(=O)Nc2ccc3c(c2)[C@@H]2C[C@@H](CC(=O)N4CCN(C)CC4)O[C@H](CO)[C@@H]2O3)cc1`, for which the cytotoxicity call in the experiment on HSkMC and with HepG2 was “inactive” in each case. In addition, the growth inhibition call in the experiment with S. aureus RN4220 was “inactive”.

Take `COC(=O)CCC(=O)OC`: the cytotoxicity call with HSkMC and in the experiment on HepG2 was “inactive” in each case. Further, in the experiment on S. aureus RN4220, the growth inhibition call is “inactive”.

As for `CN(C)c1ncnc2c1ncn2[C@H]1O[C@@H](CO)[C@@H](N)[C@@H]1O`, the cytotoxicity call in the experiment with HSkMC is “inactive”. The cytotoxicity call in the experiment with HepG2 was “active”. Further, the growth inhibition call in the experiment on S. aureus RN4220 was “inactive”.

On to `COCC(=O)Nc1ccc2c(c1)C(=O)N(C)C[C@H](OC)[C@H](C)CN(Cc1ccccc1F)[C@H](C)CO2`, for which the cytotoxicity call in the experiment on HSkMC and with HepG2 was “inactive” throughout. In addition, the growth inhibition call in the experiment on S. aureus RN4220 is “inactive”.

Regarding `Cc1ccc(S(=O)(=O)N(C)C[C@@H]2Oc3ccc(NS(=O)(=O)c4cccs4)cc3C(=O)N([C@H](C)CO)C[C@@H]2C)cc1`, the cytotoxicity call in the experiment on HSkMC (human skeletal muscle cells) and in the experiment with HepG2 was “inactive” each time. For the same compound, in the experiment on S. aureus RN4220, the growth inhibition call is “inactive”.

For the compound `Cc1noc(C)c1S(=O)(=O)N(C)C[C@@H]1Oc2ccc(NC(=O)CCN3CCOCC3)cc2CC(=O)N([C@@H](C)CO)C[C@H]1C`, the cytotoxicity call in the experiment with HSkMC and with HepG2 was “inactive” throughout. For the same compound, in the experiment on S. aureus RN4220, the growth inhibition call is “inactive”.

As for `C[C@@H]1CN([C@@H](C)CO)C(=O)c2cc(NS(=O)(=O)c3ccccc3)ccc2O[C@@H](C)CCCCO[C@H]1CN(C)C(=O)C1CCCCC1`, the cytotoxicity call with HSkMC and in the experiment on HepG2 was “inactive” throughout. Besides, the growth inhibition call in the experiment on S. aureus RN4220 was “inactive”.

`COc1ccc(S(=O)(=O)Nc2ccc3c(c2)C(=O)N([C@H](C)CO)C[C@H](C)[C@H](CN(C)S(=O)(=O)c2cccs2)O3)cc1`: the cytotoxicity call with HSkMC and in the experiment on HepG2 was “inactive” each time. Moreover, the growth inhibition call in the experiment with S. aureus RN4220 is “inactive”.

In the case of `CCCCN[C@H]1CCS(=O)(=O)C1`, the cytotoxicity call in the experiment with HSkMC and in the experiment on HepG2 was “inactive” each time. In addition, in the experiment with S. aureus RN4220, the growth inhibition call was “inactive”.

As to `COc1ccc(NC(=O)Nc2ccc3c(c2)C(=O)N([C@@H](C)CO)C[C@@H](C)[C@@H](CN(C)S(=O)(=O)c2ccccc2)OCCCC[C@H](C)O3)cc1`, the cytotoxicity call with HSkMC and with HepG2 was “inactive” throughout. The growth inhibition call in the experiment on S. aureus RN4220 was “inactive”.
